Assay results reported in PMC6616073 (Frontiers in Pharmacology, 2019).
Positions of bridges follow the written chain, without caps; N, C: chain ends. Residues, ends and D or L forms follow the SMILES beside them.

What follows are compounds tested against LBD of the human nAChR α9 subunit (Homo sapiens, UniProt Q9UGM1) (assay: biochemical). Conditions: not given.

Compound | IC50
CSCC[C@@H]1NC(=O)[C@H](CCCNC(=N)N)NC(=O)[C@H]([C@@H](C)O)NC(=O)[C@@H]2CCCN2C(=O)[C@H]([C@@H](C)O)NC(=O)[C@H](Cc2ccc(O)cc2)NC(=O)[C@H](Cc2ccc(O)cc2)NC(=O)[C@H]([C@@H](C)O)NC(=O)[C@H](CCCNC(=N)N)NC(=O)[C@H]([C@@H](C)O)NC(=O)[C@H]([C@@H](C)O)NC(=O)[C@@H](N)CSSC[C@@H](C(=O)O)NC(=O)[C@H](CCCCN)NC(=O)[C@H](CO)NC(=O)[C@H](C(C)C)NC(=O)[C@H](CCCCN)NC1=O [Lynx1 (1)] (H-CTTRTYYTPTRMKVSKC-OH; disulfide 1-17) | 41.7 µM
CC(C)C[C@@H]1NC(=O)[C@H](C(C)C)NC(=O)[C@H](CCCNC(=N)N)NC(=O)[C@H]([C@@H](C)O)NC(=O)[C@H](C)NC(=O)[C@H]([C@@H](C)O)NC(=O)[C@@H](N)CSSC[C@@H](C(=O)O)NC(=O)[C@H]([C@@H](C)O)NC(=O)[C@H](C(C)C)NC(=O)[C@H](CC(C)C)NC(=O)[C@@H]2CCCN2C(=O)[C@H](CC(C)C)NC(=O)[C@H](CC(=O)O)NC(=O)[C@H](CCC(=O)O)NC(=O)[C@H]([C@@H](C)O)NC(=O)[C@H](CC(N)=O)NC(=O)[C@H](CO)NC1=O [SLURP2 (7)] (H-CTATRVLSNTEDLPLVTC-OH; disulfide 1-18; N-terminus assumed) | ~400 µM
CC(C)C[C@@H]1NC(=O)[C@H]([C@@H](C)O)NC(=O)[C@@H](N)CSSC[C@@H](C(=O)O)NC(=O)[C@H]([C@@H](C)O)NC(=O)[C@H](C(C)C)NC(=O)[C@H](C(C)C)NC(=O)[C@@H]2CCCN2C(=O)[C@H](CO)NC(=O)[C@H](CCC(N)=O)NC(=O)[C@H](CC(N)=O)NC(=O)[C@H](Cc2ccccc2)NC(=O)[C@@H]2CCCN2C(=O)[C@H](Cc2ccc(O)cc2)NC(=O)[C@H](CCC(=O)O)NC(=O)[C@H](C)NC(=O)[C@H](CCC(=O)O)NC(=O)[C@H](C(C)C)NC(=O)[C@H]([C@@H](C)O)NC(=O)[C@H](C(C)C)NC1=O [SLURP1 (6)] (H-CTLVTVEAEYPFNQSPVVTC-OH; disulfide 1-20; N-terminus assumed) | > 300 µM
CSCC[C@@H]1NC(=O)[C@H](CCCNC(=N)N)NC(=O)[C@H](CCCNC(=N)N)NC(=O)[C@H](C(C)C)NC(=O)[C@H](C(C)C)NC(=O)[C@H](CCC(=O)O)NC(=O)[C@H](Cc2ccc(O)cc2)NC(=O)[C@@H]2CCCN2C(=O)[C@H](CO)NC(=O)[C@H](CCCNC(=N)N)NC(=O)[C@H](CCC(N)=O)NC(=O)[C@H](Cc2c[nH]cn2)NC(=O)[C@H](CCCNC(=N)N)NC(=O)[C@H](C(C)C)NC(=O)[C@H](CCSC)NC(=O)[C@H](CCCCN)NC(=O)[C@@H](N)CSSC[C@@H](C(=O)O)NC1=O [SSS (5)] (H-CKMVRHQRSPYEVVRRMC-OH; disulfide 1-18; N-terminus assumed) | 41.7 µM

Same assay, conditions: […]; 100 nM human α9 LBD, Ni2+-NTA agarose beads; mean (95% CI), three to four independent experiments; read-out: IC50, μM (95%CI) α9 LBD

Compound | IC50
CSCC[C@H](NC(=O)[C@H](CCCNC(=N)N)NC(=O)[C@@H](NC(=O)[C@@H]1CCCN1C(=O)[C@@H](NC(=O)[C@H](Cc1ccc(O)cc1)NC(=O)[C@H](Cc1ccc(O)cc1)NC(=O)[C@@H](NC(=O)[C@H](CCCNC(=N)N)NC(=O)[C@@H](NC(=O)[C@@H](N)CS)[C@@H](C)O)[C@@H](C)O)[C@@H](C)O)[C@@H](C)O)C(=O)N[C@@H](CS)C(=O)O [Lynx1 short linear (4)] (H-CTRTYYTPTRMC-OH) | 70.8 µM
CSCC[C@@H]1NC(=O)[C@H](CCCNC(=N)N)NC(=O)[C@H]([C@@H](C)O)NC(=O)[C@@H]2CCCN2C(=O)[C@H]([C@@H](C)O)NC(=O)[C@H](Cc2ccc(O)cc2)NC(=O)[C@H](Cc2ccc(O)cc2)NC(=O)[C@H]([C@@H](C)O)NC(=O)[C@H](CCCNC(=N)N)NC(=O)[C@H]([C@@H](C)O)NC(=O)[C@@H](N)CSSC[C@@H](C(=O)O)NC1=O [Lynx1 short (3)] (H-CTRTYYTPTRMC-OH; disulfide 1-12) | > 100 µM
